From the supplement of paper PMC7826260
Some of the results follow. Each Rep nickase domain was tested in vitro on the same pool of single strands (1 h at 37 °C, 3 µM enzyme); the outer parts of the 90-letter strands are left off. Numbers give uncut DNA relative to the enzyme-free pool, as log2; strong cutting gives strongly negative numbers. There is no active / inactive call. Shares of all reads are compared; where an enzyme cuts many sequences, the uncut ones exceed 0.

Key:
Experiment in all cases: uncleaved DNA left, log2 of reads against the no-enzyme library (log2 ratio); higher = less cleavage (more negative = more Rep cleavage of the k-mer); sequences stand for … in CTCGTCCG…ACCGGAGA
[1] = test system: T1, Rep nickase domain of Muscovy duck circovirus
T1 sequence (protein, residues 1-111, tag omitted): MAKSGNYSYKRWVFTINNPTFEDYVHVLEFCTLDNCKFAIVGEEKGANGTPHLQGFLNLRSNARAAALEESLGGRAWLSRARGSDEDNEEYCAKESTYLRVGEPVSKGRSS
Procedure: (§1)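 A pool of 90-nt single-stranded DNAs with seven random bases just before the constant AC of the nick site (name = the seven bases) was cut by 3 µM recombinant His6-SUMO-tagged Rep nickase domain (300 nM DNA, 50 mM HEPES pH 8.0, 50 mM NaCl, 1 mM MnCl2, 1 h, 37 °C, three replicates). Uncut DNA was amplified and sequenced.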

[2] = test system: T2, Rep nickase domain of banana bunchy top virus
T2 sequence (protein, residues 1-94, tag omitted): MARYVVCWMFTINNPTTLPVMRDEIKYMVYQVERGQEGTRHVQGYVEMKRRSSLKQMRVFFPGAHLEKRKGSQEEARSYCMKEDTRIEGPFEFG
Procedure: as §1

[3] = test system: T3, Rep nickase domain of cabbage leaf curl virus
T3 sequence (protein, residues 1-116, tag omitted): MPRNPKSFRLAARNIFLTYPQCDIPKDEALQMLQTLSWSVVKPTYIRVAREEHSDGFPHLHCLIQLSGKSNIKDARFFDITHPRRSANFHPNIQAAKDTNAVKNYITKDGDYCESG
Procedure: as §1

[4] = test system: T4, Rep nickase domain of chickpea chlorotic dwarf virus
T4 sequence (protein, residues 1-124, tag omitted): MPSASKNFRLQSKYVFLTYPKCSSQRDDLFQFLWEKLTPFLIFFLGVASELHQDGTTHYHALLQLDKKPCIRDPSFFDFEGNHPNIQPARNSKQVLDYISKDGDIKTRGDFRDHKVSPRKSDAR
Procedure: as §1

[5] = test system: T5, Rep nickase domain of faba bean necrotic yellows virus
T5 sequence (protein, residues 1-98, tag omitted): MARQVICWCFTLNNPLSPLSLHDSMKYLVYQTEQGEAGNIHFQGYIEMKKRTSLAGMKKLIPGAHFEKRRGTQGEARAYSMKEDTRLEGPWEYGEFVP
Procedure: as §1

[6] = test system: T6, Rep nickase domain of maize striate mosaic virus
T6 sequence (protein, residues 1-117, tag omitted): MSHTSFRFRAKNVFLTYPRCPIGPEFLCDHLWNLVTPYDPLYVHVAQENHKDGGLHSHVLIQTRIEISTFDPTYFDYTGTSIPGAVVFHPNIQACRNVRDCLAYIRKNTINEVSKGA
Procedure: as §1

[7] = test system: T7, Rep nickase domain of porcine circovirus 2
T7 sequence (protein, residues 2-116, tag omitted): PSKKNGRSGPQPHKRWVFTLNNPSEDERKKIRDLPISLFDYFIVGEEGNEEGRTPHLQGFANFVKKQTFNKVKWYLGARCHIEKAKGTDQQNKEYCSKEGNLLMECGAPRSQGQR
Procedure: as §1

[8] = test system: T8, Rep nickase domain of tomato golden mosaic virus
T8 sequence (protein, residues 1-124, tag omitted): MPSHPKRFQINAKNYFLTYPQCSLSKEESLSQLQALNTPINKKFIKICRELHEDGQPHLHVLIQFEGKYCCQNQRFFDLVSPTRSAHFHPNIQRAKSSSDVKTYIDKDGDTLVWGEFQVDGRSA
Procedure: as §1

[9] = test system: T9, Rep nickase domain of tomato yellow leaf curl virus
T9 sequence (protein, residues 1-136, tag omitted): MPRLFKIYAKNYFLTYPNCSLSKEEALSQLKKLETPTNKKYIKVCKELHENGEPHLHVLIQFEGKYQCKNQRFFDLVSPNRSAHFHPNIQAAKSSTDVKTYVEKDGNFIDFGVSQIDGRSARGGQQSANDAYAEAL
Procedure: as §1

[10] = test system: T10, Rep nickase domain of wheat dwarf virus
T10 sequence (protein, residues 1-137, tag omitted): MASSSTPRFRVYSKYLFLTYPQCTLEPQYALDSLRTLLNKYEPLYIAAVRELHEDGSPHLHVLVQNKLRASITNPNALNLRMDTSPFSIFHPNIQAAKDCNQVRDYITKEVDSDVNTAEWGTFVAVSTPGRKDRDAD
Procedure: as §1

Row | Sequence | uncleaved DNA left (log2) [1] | uncleaved DNA left (log2) [2] | uncleaved DNA left (log2) [3] | uncleaved DNA left (log2) [4] | uncleaved DNA left (log2) [5] | uncleaved DNA left (log2) [6] | uncleaved DNA left (log2) [7] | uncleaved DNA left (log2) [8] | uncleaved DNA left (log2) [9] | uncleaved DNA left (log2) [10]
1 | ATCTTGG | 0.068 | -0.0376 | -0.318 | -0.251 | 0.0141 | -1.08 | 0.107 | -0.00855 | 0.0418 | -0.0209
2 | ATGATTA | -0.111 | -0.058 | -0.323 | -1.28 | 0.095 | -0.602 | -0.0992 | 0.0447 | -0.0769 | -0.0644
3 | GGATTTG | -0.0452 | -0.072 | 0.0383 | 0.374 | -0.03 | 0.0384 | 0.127 | -0.0102 | -0.0118 | 0.00829
4 | GGCAGCG | 0.114 | 0.0315 | -0.737 | 0.0657 | 0.078 | -0.581 | 0.155 | 0.0416 | 0.0916 | -0.0339
5 | AAGATAT | 0.0208 | -0.000671 | 0.32 | 1.07 | -0.0751 | 1.52 | -2.85 | 0.101 | -0.0914 | 0.112
6 | TACTCGG | -0.0713 | 0.0242 | 0.452 | 1.33 | -0.0108 | 1.72 | 0.00982 | -0.00499 | -0.217 | -0.0345
7 | CTCTCGT | 0.131 | -0.0669 | -0.473 | -0.799 | -0.0456 | -0.901 | -0.212 | -0.0629 | 0.00469 | -0.161
8 | ACTTCCT | -0.213 | -0.0707 | -0.288 | -2.41 | -0.107 | -0.67 | -0.948 | -0.0607 | -0.097 | -0.0491
9 | CAAGGGA | 0.159 | 0.07 | 0.35 | 0.908 | 0.0578 | 0.706 | 0.233 | 0.125 | 0.0924 | 0.028
10 | TCACGGG | -0.0742 | -0.0581 | -0.177 | -0.0241 | -0.0851 | -0.57 | 0.117 | 0.0256 | -0.0715 | -0.12
11 | CGCGATA | -0.214 | -0.0696 | -0.355 | -0.419 | -0.103 | -0.637 | -0.0943 | -0.163 | -0.24 | -0.165
12 | TCCCGTA | 0.0107 | -0.0127 | 0.127 | -0.515 | -0.0751 | -0.683 | -0.0329 | 0.0127 | 0.0339 | -0.114
13 | GGGTTCT | -0.177 | -0.0114 | 0.639 | 1.59 | -0.201 | 2.04 | -0.734 | -0.156 | -0.0167 | -0.0525
14 | TTCCATT | 0.055 | -0.086 | 0.0368 | -1.71 | -0.0177 | -0.498 | -0.802 | -0.195 | 0.0712 | -0.0159
15 | TATCTCT | -0.12 | -0.168 | -0.479 | -2.84 | -0.0348 | 0.161 | -0.932 | -0.119 | -0.0263 | -0.167
